Data taken from article PMC4624580, “E2-EPF UCP regulates stability and functions of missense mutant pVHL via ubiquitin mediated proteolysis” (BMC Cancer, 2015).

T1: His-UCP (E2-EPF ubiquitin carrier protein), recombinant (human, UniProt Q16763 1-222)
T1 construct: E2-EPF ubiquitin carrier protein (UCP), human cDNA from the 21C Frontier Human Gene-Bank, full length cloned into pET28a; Host is probably E. coli BL21 (named only in the list of abbreviations); also called E2-EPF UCP; source: recombinant, pET28a, IPTG-induced, purified (Ni-NTA)
T1 sequence (looked up): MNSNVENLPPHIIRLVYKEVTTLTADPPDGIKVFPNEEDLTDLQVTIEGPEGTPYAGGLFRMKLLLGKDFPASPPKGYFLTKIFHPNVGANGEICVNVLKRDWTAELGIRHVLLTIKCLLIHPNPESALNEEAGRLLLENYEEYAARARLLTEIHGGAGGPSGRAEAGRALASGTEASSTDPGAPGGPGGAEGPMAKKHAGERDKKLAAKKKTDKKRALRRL

B1: GST-pVHL V155A, recombinant (natural protein)
chain: not shown
notes: von Hippel-Lindau protein (pVHL), cloned by PCR from pFlag-VHL; Host is probably E. coli BL21 (list of abbreviations only); also called GST-VHL V155A; source: recombinant, pGEX-4T1, IPTG-induced, purified (glutathione sepharose 4B)
B2: GST-pVHL L158Q, recombinant (natural protein)
chain: not shown
notes: von Hippel-Lindau protein (pVHL), cloned by PCR from pFlag-VHL; also called GST-VHL L158Q; source: recombinant, pGEX-4T1, IPTG-induced, purified (glutathione sepharose 4B)
B3: GST-pVHL Q164R, recombinant (natural protein)
chain: not shown
notes: von Hippel-Lindau protein (pVHL), cloned by PCR from pFlag-VHL; also called GST-VHL Q164R; source: recombinant, pGEX-4T1, IPTG-induced, purified (glutathione sepharose 4B)

What follows are binders tested against T1, His-UCP (E2-EPF ubiquitin carrier …) (assay: pull-down; recombinant mutant GST-VHL and His-UCP proteins mixed; GST pull-down; bound UCP detected by immunoblot). Conditions: both partners purified.

Binder	binding result
B1	binds
B2	binds
B3	binds
